Measured values as given in the supplement of paper PMC8728848.
Some of the results follow.

Tests used:
Test in all cases: glycan array binding signal (z-score within array); higher = stronger binding
Conditions in all cases: glycan notation: IUPAC condensed, linker removed
Kdn(a2-6)Gal(b1-4)GlcNAc = molecular target: Kdn(a2-6)Gal(b1-4)GlcNAc
In short: (§1)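 Columns mapping to the same glycan were averaged after glycan names were converted to IUPAC-condensed notation. The data come from 3228 arrays in the Consortium for Functional Glycomics database, limited to those with an available protein sequence. Binding is reported as a within-array Z-score averaged across arrays of one protein sequence and across linkers.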

[1] = molecular target: Man(a1-2)Man(a1-2)Man(a1-3)Man
In short: as §1

[2] = molecular target: Man(a1-2)Man(a1-2)Man(a1-6)[Man(a1-3)]Man
In short: as §1

Man(a1-2)Man(a1-3)Man = molecular target: Man(a1-2)Man(a1-3)Man
In short: as §1

[3] = molecular target: Man(a1-2)Man(a1-3)[Man(a1-2)Man(a1-6)]Man
In short: as §1

[4] = molecular target: Man(a1-2)Man(a1-3)[Man(a1-2)Man(a1-6)]Man(a1-6)[Man(a1-2)Man(a1-2)Man(a1-3)]Man
In short: as §1

[5] = molecular target: Man(a1-2)Man(a1-3)[Man(a1-2)Man(a1-6)]Man(a1-6)[Man(a1-2)Man(a1-2)Man(a1-3)]Man(b1-4)GlcNAc(b1-4)GlcNAc
In short: as §1

[6] = molecular target: Man(a1-2)Man(a1-3)[Man(a1-6)]Man(a1-6)[Man(a1-2)Man(a1-3)]Man(b1-4)GlcNAc(b1-4)GlcNAc
In short: as §1

[7] = molecular target: Man(a1-2)Man(a1-6)[Man(a1-3)]Man(a1-6)[Man(a1-2)Man(a1-2)Man(a1-3)]Man
In short: as §1

[8] = molecular target: Man(a1-2)Man(a1-6)[Man(a1-3)]Man(a1-6)[Man(a1-2)Man(a1-2)Man(a1-3)]Man(b1-4)GlcNAc(b1-4)GlcNAc
In short: as §1

Man(a1-3)[Man(a1-6)]Man = molecular target: Man(a1-3)[Man(a1-6)]Man
In short: as §1

[9] = molecular target: Man(a1-3)[Man(a1-6)]Man(a1-6)[Man(a1-2)Man(a1-3)]Man(b1-4)GlcNAc(b1-4)GlcNAc
In short: as §1

[10] = molecular target: Man(a1-3)[Man(a1-6)]Man(a1-6)[Man(a1-3)]Man
In short: as §1

[11] = molecular target: Man(a1-3)[Man(a1-6)]Man(a1-6)[Man(a1-3)]Man(b1-4)GlcNAc(b1-4)GlcNAc
In short: as §1

[12] = molecular target: Man(a1-3)[Man(a1-6)]Man(b1-4)GlcNAc(b1-4)GlcNAc
In short: as §1

[13] = molecular target: Man(a1-3)[Man(a1-6)]Man(b1-4)GlcNAc(b1-4)[Fuc(a1-6)]GlcNAc
In short: as §1

Man(a1-6)Man = molecular target: Man(a1-6)Man
In short: as §1

Man(b1-4)GlcNAc = molecular target: Man(b1-4)GlcNAc
In short: as §1

MurNAc(b1-4)GlcNAc = molecular target: MurNAc(b1-4)GlcNAc
In short: as §1

Neu5Ac(a2-3)Gal = molecular target: Neu5Ac(a2-3)Gal
In short: as §1

[14] = molecular target: Neu5Ac(a2-3)Gal(b1-3)GalNAc
In short: as §1

[15] = molecular target: Neu5Ac(a2-3)Gal(b1-3)GalNAc(b1-3)Gal(a1-4)Gal(b1-4)Glc
In short: as §1

[16] = molecular target: Neu5Ac(a2-3)Gal(b1-3)GalNAc(b1-4)[Neu5Ac(a2-3)]Gal(b1-4)Glc
In short: as §1

[17] = molecular target: Neu5Ac(a2-3)Gal(b1-3)GalNAc(b1-4)[Neu5Ac(a2-8)Neu5Ac(a2-3)]Gal(b1-4)Glc
In short: as §1

[18] = molecular target: Neu5Ac(a2-3)Gal(b1-3)GalNAc6S
In short: as §1

[19] = molecular target: Neu5Ac(a2-3)Gal(b1-3)GlcNAc
In short: as §1

[20] = molecular target: Neu5Ac(a2-3)Gal(b1-3)GlcNAc(b1-2)Man
In short: as §1

[21] = molecular target: Neu5Ac(a2-3)Gal(b1-3)GlcNAc(b1-2)Man(a1-3)[GlcNAc(b1-4)][Neu5Ac(a2-3)Gal(b1-3)GlcNAc(b1-2)Man(a1-6)]Man(b1-4)GlcNAc(b1-4)GlcNAc
In short: as §1

[22] = molecular target: Neu5Ac(a2-3)Gal(b1-3)GlcNAc(b1-2)Man(a1-3)[Neu5Ac(a2-3)Gal(b1-3)GlcNAc(b1-2)Man(a1-6)]Man(b1-4)GlcNAc(b1-4)GlcNAc
In short: as §1

[23] = molecular target: Neu5Ac(a2-3)Gal(b1-3)GlcNAc(b1-3)Gal(b1-3)GlcNAc
In short: as §1

[24] = molecular target: Neu5Ac(a2-3)Gal(b1-3)GlcNAc(b1-3)Gal(b1-4)GlcNAc
In short: as §1

[25] = molecular target: Neu5Ac(a2-3)Gal(b1-3)GlcNAc(b1-3)GalNAc
In short: as §1

[26] = molecular target: Neu5Ac(a2-3)Gal(b1-3)GlcNAc(b1-4)Gal(b1-4)Glc
In short: as §1

[27] = molecular target: Neu5Ac(a2-3)Gal(b1-3)GlcNAc(b1-6)GalNAc
In short: as §1

[28] = molecular target: Neu5Ac(a2-3)Gal(b1-3)GlcNAc6S
In short: as §1

[29] = molecular target: Neu5Ac(a2-3)Gal(b1-3)[Fuc(a1-4)]GlcNAc
In short: as §1

[30] = molecular target: Neu5Ac(a2-3)Gal(b1-3)[Fuc(a1-4)]GlcNAc(b1-3)Gal(b1-3)[Fuc(a1-4)]GlcNAc
In short: as §1

B1: PpFlo2 (Pichia pastoris) (protein)
chain: MGSSHHHHHHSSGLVPRGSHMDDSGNGDNSDTAYGCDITTNAVDGFDATIYQYNANDLRLIRDPTFMSTGYLGRNVLNKISGVTVPGFNIWNPSSRTATVYGVKNVNYYNMVLELKGYFKADVSGDYKLTLSHIDDSSMLFFGKETAFKCCDAGSIPLNEAPTDYSLFTIKPSNQVNSEVISATQYLEAGKYYPVRIVFVNALERARFDFKLTIPSGAVLDDFQNYIYQFGDLDENSCHE
glycan array binding signal (z-score) (Kdn(a2-6)Gal(b1-4)GlcNAc): -0.297
glycan array binding signal (z-score) [1]: -0.276
glycan array binding signal (z-score) [2]: -0.295
glycan array binding signal (z-score) (Man(a1-2)Man(a1-3)Man): -0.29
glycan array binding signal (z-score) [3]: -0.303
glycan array binding signal (z-score) [4]: -0.299
glycan array binding signal (z-score) [5]: -0.288
glycan array binding signal (z-score) [6]: -0.276
glycan array binding signal (z-score) [7]: -0.301
glycan array binding signal (z-score) [8]: -0.292
glycan array binding signal (z-score) (Man(a1-3)[Man(a1-6)]Man): -0.299
glycan array binding signal (z-score) [9]: -0.252
glycan array binding signal (z-score) [10]: -0.299
glycan array binding signal (z-score) [11]: -0.266
glycan array binding signal (z-score) [12]: 0.074
glycan array binding signal (z-score) [13]: -0.248
glycan array binding signal (z-score) (Man(a1-6)Man): -0.298
glycan array binding signal (z-score) (Man(b1-4)GlcNAc): -0.299
glycan array binding signal (z-score) (MurNAc(b1-4)GlcNAc): -0.149
glycan array binding signal (z-score) (Neu5Ac(a2-3)Gal): -0.301
glycan array binding signal (z-score) [14]: -0.302
glycan array binding signal (z-score) [15]: -0.297
glycan array binding signal (z-score) [16]: -0.301
glycan array binding signal (z-score) [17]: -0.292
glycan array binding signal (z-score) [18]: -0.3
glycan array binding signal (z-score) [19]: -0.294
glycan array binding signal (z-score) [20]: -0.271
glycan array binding signal (z-score) [21]: -0.27
glycan array binding signal (z-score) [22]: -0.268
glycan array binding signal (z-score) [23]: -0.256
glycan array binding signal (z-score) [24]: -0.293
glycan array binding signal (z-score) [25]: -0.298
glycan array binding signal (z-score) [26]: -0.277
glycan array binding signal (z-score) [27]: -0.275
glycan array binding signal (z-score) [28]: -0.295
glycan array binding signal (z-score) [29]: -0.304
glycan array binding signal (z-score) [30]: -0.292
